Data reported in publication PMC12820563, “FoxP3 forms a head-to-head dimer in vivo and stabilizes its multimerization on adjacent microsatellites”.
The list shows a part of the results.

The sequences below were run against T1, MBP-FoxP1dN (Mus musculus, UniProt P58462 326-579) (assay: PD-seq (MBP pull-down with sequencing); 20 mM Tris-HCl pH 7.5, 100 mM NaCl, 1.5 mM MgCl2, 0.4 uM protein, 0.1 uM dsDNA library, 30 min, room temperature, amylose pull-down; high values mean tight binding). Conditions: protein: recombinant; tags: His6-MBP; chain copies: 2; dsDNA, one strand shown.
T1 sequence: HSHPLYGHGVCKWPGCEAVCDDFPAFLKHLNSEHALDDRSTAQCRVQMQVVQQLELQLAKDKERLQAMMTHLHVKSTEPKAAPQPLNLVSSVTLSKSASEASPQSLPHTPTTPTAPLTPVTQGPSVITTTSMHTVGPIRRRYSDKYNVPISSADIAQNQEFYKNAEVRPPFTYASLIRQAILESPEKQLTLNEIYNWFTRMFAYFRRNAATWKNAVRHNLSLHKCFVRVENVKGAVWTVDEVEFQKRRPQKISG
Procedure, shortened: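 A fragment of mouse FoxP3 or FoxP1 without its N-terminus, carrying a His6-MBP tag and produced in E. coli, was combined at 0.4 µM with a 0.1 µM degenerate double-stranded DNA library filled in with Klenow. The mixture sat for 30 min at room temperature in Tris pH 7.5 buffer containing NaCl and MgCl2. Protein–DNA complexes were captured on amylose resin, washed three times, and the DNA was freed with proteinase K, barcoded by PCR and sequenced on Illumina. Binding is expressed as reads-per-million enrichment of pull-down over input, with replicates pooled.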
In the case of “GATGATTGTTCTCCCAGCTGATGAATTAAACGGGTCGAGTAAACAAATTTTCCTAATCTTTCTGTTCAAGCGCCATCTAC”, the binding signal is reported as 0.869 RPM ratio (pull-down/input). For “GATGATTGTTCTCCCAGCTGATGAATTCCCAGAATCGAGTAAACAAATTTTCCTAATCTTTCTGTTCAAGCGCCATCTAC”, the binding signal was 0.889 RPM ratio (pull-down/input). In the case of “GATGATTGTTCTCCCAGCTGATGAATTCGGCTAATCGAGTAAACAAATTTTCCTAATCTTTCTGTTCAAGCGCCATCTAC”, the binding signal is reported as 0.837 RPM ratio (pull-down/input). “GATGATTGTTCTCCCAGCTGATGAATTTAGGGAGTCGAGTAAACAAATTTTCCTAATCTTTCTGTTCAAGCGCCATCTAC” was tested, and the binding signal was 0.905 RPM ratio (pull-down/input). In the case of “GATGATTGTTCTCCCAGCTGATGAATTTTGGAAGTCGAGTAAACAAATTTTCCTAATCTTTCTGTTCAAGCGCCATCTAC”, the binding signal is reported as 0.873 RPM ratio (pull-down/input). In the case of “GATGATTGTTCTCCCAGCTGATGAATTATCTTCCTCGAGTAAACAAATTTTCCTAATCTTTCTGTTCAAGCGCCATCTAC”, the binding signal is reported as 0.887 RPM ratio (pull-down/input). For “GATGATTGTTCTCCCAGCTGATGAATTCCGTCCATCGAGTAAACAAATTTTCCTAATCTTTCTGTTCAAGCGCCATCTAC”, the binding signal was 0.856 RPM ratio (pull-down/input). In the case of “GATGATTGTTCTCCCAGCTGATGAATTCTTGCTCTCGAGTAAACAAATTTTCCTAATCTTTCTGTTCAAGCGCCATCTAC”, the binding signal is reported as 0.781 RPM ratio (pull-down/input). “GATGATTGTTCTCCCAGCTGATGAATTGAGTTTATCGAGTAAACAAATTTTCCTAATCTTTCTGTTCAAGCGCCATCTAC” was tested, and the binding signal was 1.41 RPM ratio (pull-down/input). “GATGATTGTTCTCCCAGCTGATGAATTAAACTCATCGAGTAAACAAATTTTCCTAATCTTTCTGTTCAAGCGCCATCTAC” was tested, and the binding signal was 0.982 RPM ratio (pull-down/input). For “GATGATTGTTCTCCCAGCTGATGAATTAGACGCATCGAGTAAACAAATTTTCCTAATCTTTCTGTTCAAGCGCCATCTAC”, the binding signal was 1.19 RPM ratio (pull-down/input). With “GATGATTGTTCTCCCAGCTGATGAATTCGCGGGATCGAGTAAACAAATTTTCCTAATCTTTCTGTTCAAGCGCCATCTAC” the binding signal was 0.826 RPM ratio (pull-down/input). “GATGATTGTTCTCCCAGCTGATGAATTGTGCGTTTCGAGTAAACAAATTTTCCTAATCTTTCTGTTCAAGCGCCATCTAC” was tested, and the binding signal was 1.11 RPM ratio (pull-down/input). With “GATGATTGTTCTCCCAGCTGATGAATTCCGATAATCGAGTAAACAAATTTTCCTAATCTTTCTGTTCAAGCGCCATCTAC” the binding signal was 1.08 RPM ratio (pull-down/input). With “GATGATTGTTCTCCCAGCTGATGAATTGGAGATGTCGAGTAAACAAATTTTCCTAATCTTTCTGTTCAAGCGCCATCTAC” the binding signal was 0.866 RPM ratio (pull-down/input). In the case of “GATGATTGTTCTCCCAGCTGATGAATTCACTTGTTCGAGTAAACAAATTTTCCTAATCTTTCTGTTCAAGCGCCATCTAC”, the binding signal is reported as 0.888 RPM ratio (pull-down/input). For “GATGATTGTTCTCCCAGCTGATGAATTATCCCCATCGAGTAAACAAATTTTCCTAATCTTTCTGTTCAAGCGCCATCTAC”, the binding signal was 1.04 RPM ratio (pull-down/input). “GATGATTGTTCTCCCAGCTGATGAATTCTAGTGTTCGAGTAAACAAATTTTCCTAATCTTTCTGTTCAAGCGCCATCTAC” was tested, and the binding signal was 1.06 RPM ratio (pull-down/input). For “GATGATTGTTCTCCCAGCTGATGAATTAAGGTTTTCGAGTAAACAAATTTTCCTAATCTTTCTGTTCAAGCGCCATCTAC”, the binding signal was 1.01 RPM ratio (pull-down/input). “GATGATTGTTCTCCCAGCTGATGAATTCTTTCGATCGAGTAAACAAATTTTCCTAATCTTTCTGTTCAAGCGCCATCTAC” was tested, and the binding signal was 0.874 RPM ratio (pull-down/input). For “GATGATTGTTCTCCCAGCTGATGAATTATTCTGTTCGAGTAAACAAATTTTCCTAATCTTTCTGTTCAAGCGCCATCTAC”, the binding signal was 1.18 RPM ratio (pull-down/input). In the case of “GATGATTGTTCTCCCAGCTGATGAATTGCTGGGATCGAGTAAACAAATTTTCCTAATCTTTCTGTTCAAGCGCCATCTAC”, the binding signal is reported as 0.939 RPM ratio (pull-down/input). In the case of “GATGATTGTTCTCCCAGCTGATGAATTGACGACGTCGAGTAAACAAATTTTCCTAATCTTTCTGTTCAAGCGCCATCTAC”, the binding signal is reported as 1.07 RPM ratio (pull-down/input). In the case of “GATGATTGTTCTCCCAGCTGATGAATTTCTTAGGTCGAGTAAACAAATTTTCCTAATCTTTCTGTTCAAGCGCCATCTAC”, the binding signal is reported as 0.814 RPM ratio (pull-down/input). With “GATGATTGTTCTCCCAGCTGATGAATTAAGTTTCTCGAGTAAACAAATTTTCCTAATCTTTCTGTTCAAGCGCCATCTAC” the binding signal was 0.867 RPM ratio (pull-down/input). With “GATGATTGTTCTCCCAGCTGATGAATTGAACGCCTCGAGTAAACAAATTTTCCTAATCTTTCTGTTCAAGCGCCATCTAC” the binding signal was 0.893 RPM ratio (pull-down/input). “GATGATTGTTCTCCCAGCTGATGAATTTTGCCCTTCGAGTAAACAAATTTTCCTAATCTTTCTGTTCAAGCGCCATCTAC” was tested, and the binding signal was 0.894 RPM ratio (pull-down/input). In the case of “GATGATTGTTCTCCCAGCTGATGAATTTCTTTAATCGAGTAAACAAATTTTCCTAATCTTTCTGTTCAAGCGCCATCTAC”, the binding signal is reported as 1.06 RPM ratio (pull-down/input). In the case of “GATGATTGTTCTCCCAGCTGATGAATTCCTCTGTTCGAGTAAACAAATTTTCCTAATCTTTCTGTTCAAGCGCCATCTAC”, the binding signal is reported as 0.789 RPM ratio (pull-down/input). For “GATGATTGTTCTCCCAGCTGATGAATTAATGTAATCGAGTAAACAAATTTTCCTAATCTTTCTGTTCAAGCGCCATCTAC”, the binding signal was 1.68 RPM ratio (pull-down/input). “GATGATTGTTCTCCCAGCTGATGAATTCACACGTTCGAGTAAACAAATTTTCCTAATCTTTCTGTTCAAGCGCCATCTAC” was tested, and the binding signal was 0.882 RPM ratio (pull-down/input).
